Experimental findings from patent US20160193325A1 (priority 2002, published 2016) are described below.

In this test the target is E1E2 complexes (Hepatitis C virus genotype 1a, UniProt P27958). It counts as binding, HCV. Particulars: pre-incubated with the HCVpp.
Chain of E1E2 complexes (P27958 384-745 limits assumed): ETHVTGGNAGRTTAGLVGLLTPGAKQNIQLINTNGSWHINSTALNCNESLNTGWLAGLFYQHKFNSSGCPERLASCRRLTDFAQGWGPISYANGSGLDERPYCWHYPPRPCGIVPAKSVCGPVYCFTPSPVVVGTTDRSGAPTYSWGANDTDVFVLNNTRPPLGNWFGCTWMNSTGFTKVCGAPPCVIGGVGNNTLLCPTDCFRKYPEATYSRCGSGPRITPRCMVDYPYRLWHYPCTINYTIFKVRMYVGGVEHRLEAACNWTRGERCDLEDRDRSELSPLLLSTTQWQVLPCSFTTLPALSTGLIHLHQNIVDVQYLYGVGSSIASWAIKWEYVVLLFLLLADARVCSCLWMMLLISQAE
Chain of E1E2 complexes (P27958 192-383 partner limits assumed): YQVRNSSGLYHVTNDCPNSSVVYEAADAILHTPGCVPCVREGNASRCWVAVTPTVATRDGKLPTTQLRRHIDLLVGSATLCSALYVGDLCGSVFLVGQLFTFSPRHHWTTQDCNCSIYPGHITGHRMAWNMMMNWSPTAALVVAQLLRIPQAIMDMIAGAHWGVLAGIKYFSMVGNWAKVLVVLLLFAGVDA

B1: GST-fusion hCD81-LEL polypeptides: recombinant GST-fusion polypeptides encompassing the large extra-cellular loop of human CD81 (protein)
chain: FVNKDQIAKDVKQFYDQALQQAVVDDDANNAKAVVKTFHETLDCCGSSTLTALTTSVLKNNLCPSGSNIISNLFKEDCHQKIDDLFSGK
modifications: left off: a dimerising Fc or GST
notes: recombinant GST-fusion polypeptides encompassing the large extra-cellular loop of human CD81
With B1, the “precipitation of E1E2 complexes” value was “could specifically precipitate E1E2 complexes”.
